Eight molecules from patent publication US20230416360A1 (SIMCERE ZAIMING PHARMACEUTICAL, published 2023) can be followed below.

To fix the notation:
T1: human CD22-ECD-His (human, UniProt P20273 20-687)
T1 construct: Made in HEK293E, purified on nickel column; also called hCD22-ECD-His; recombinant human CD22-ECD His; not shown: His tag
T1 sequence: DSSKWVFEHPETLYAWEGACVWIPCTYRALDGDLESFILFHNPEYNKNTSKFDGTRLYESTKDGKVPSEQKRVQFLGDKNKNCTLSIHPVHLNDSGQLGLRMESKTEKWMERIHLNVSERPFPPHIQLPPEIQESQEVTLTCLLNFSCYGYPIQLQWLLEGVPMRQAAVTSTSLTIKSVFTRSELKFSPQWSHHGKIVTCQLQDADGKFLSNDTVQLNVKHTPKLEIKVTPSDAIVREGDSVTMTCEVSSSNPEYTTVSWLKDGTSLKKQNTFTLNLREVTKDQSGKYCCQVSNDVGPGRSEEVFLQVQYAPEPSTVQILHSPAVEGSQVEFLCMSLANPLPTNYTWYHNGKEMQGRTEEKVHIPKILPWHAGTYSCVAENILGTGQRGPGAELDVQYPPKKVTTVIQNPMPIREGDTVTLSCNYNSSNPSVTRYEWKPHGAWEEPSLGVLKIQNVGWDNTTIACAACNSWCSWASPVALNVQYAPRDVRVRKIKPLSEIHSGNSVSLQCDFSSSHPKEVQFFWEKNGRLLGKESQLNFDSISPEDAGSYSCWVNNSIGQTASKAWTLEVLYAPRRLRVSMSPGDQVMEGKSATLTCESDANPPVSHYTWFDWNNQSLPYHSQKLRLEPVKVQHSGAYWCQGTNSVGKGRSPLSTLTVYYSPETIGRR

T2: human CD22 (full length, on cells) (human, UniProt P20273 20-847)
T2 construct: Raji cells carry endogenous human CD22; also called CHO-K1-human CD22 2C4; CHO-K1-human CD22 1G5
T2 sequence: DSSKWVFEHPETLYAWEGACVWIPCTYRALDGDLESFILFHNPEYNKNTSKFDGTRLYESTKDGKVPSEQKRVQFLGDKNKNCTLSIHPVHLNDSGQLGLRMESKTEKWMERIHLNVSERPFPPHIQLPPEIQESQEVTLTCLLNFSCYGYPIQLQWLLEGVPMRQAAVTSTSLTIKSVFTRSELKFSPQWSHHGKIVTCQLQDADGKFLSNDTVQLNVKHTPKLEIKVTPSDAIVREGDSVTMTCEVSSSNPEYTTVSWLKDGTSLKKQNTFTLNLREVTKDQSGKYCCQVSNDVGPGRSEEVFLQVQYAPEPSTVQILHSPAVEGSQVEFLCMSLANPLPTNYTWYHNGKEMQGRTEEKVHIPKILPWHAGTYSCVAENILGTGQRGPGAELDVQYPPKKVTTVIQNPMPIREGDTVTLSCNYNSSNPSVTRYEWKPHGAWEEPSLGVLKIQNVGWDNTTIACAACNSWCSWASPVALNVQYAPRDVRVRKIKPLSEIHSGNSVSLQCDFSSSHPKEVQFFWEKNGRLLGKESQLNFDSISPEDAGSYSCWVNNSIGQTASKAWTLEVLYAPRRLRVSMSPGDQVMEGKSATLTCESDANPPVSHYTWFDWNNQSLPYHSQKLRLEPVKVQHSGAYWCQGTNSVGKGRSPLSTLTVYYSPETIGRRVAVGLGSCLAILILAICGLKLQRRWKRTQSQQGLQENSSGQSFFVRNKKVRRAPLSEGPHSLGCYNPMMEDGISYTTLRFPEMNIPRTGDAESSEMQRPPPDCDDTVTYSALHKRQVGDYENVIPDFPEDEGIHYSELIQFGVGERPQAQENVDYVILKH

B1: S002-NB150-159n VHH-Fc (Fc fusion)
chain: QVQLVESGGGLVQAGDSLRLACEASGRTATISTMGWFRQAPGKEREFVGRIDWSAESTYIVDSVKGRFIISRDNAKNAGYLQMNSLKPVDTAVYYCAAIVVRERSYKYWGQGTQVTVSS[human IgG1 Fc with changes cut from this listing]
notes: VHH cloned into vector BI3.4-huIgG1 (hinge and human IgG1 Fc), made in HEK293E; also called S002-NB150-15911
B2: S002-NB151-30 VHH-Fc (Fc fusion)
chain: QVQLVESGGGLVQAGGSLRLSCAASGRASGSGAMGWFRQAPGQERRFVAGIEWSSGGPVYADSVKGRFTLSRDNAKNTVHLQMNSLKPEDTAVYYCAAAPWVFSSPDDYMYWGQGTQVTVSS[human IgG1 Fc with changes cut from this listing]
notes: VHH cloned into vector BI3.4-huIgG1 (hinge and human IgG1 Fc), made in HEK293E; also called 5002-NB151-30
B3: S002-NB151-51 VHH-Fc (Fc fusion)
chain: QVQLVESGGGLVQAGGSLRLSCAASGITSDDYAIGWFRQAPGKEREGVSCMYSSDGSTYYADSVKGRFTISRDNAKNTVYLQMNSLRPEDTAVYHCAAGPWCFVTGVGREEWGQGTQVTVSS[human IgG1 Fc with changes cut from this listing]
notes: VHH cloned into vector BI3.4-huIgG1 (hinge and human IgG1 Fc), made in HEK293E; also called 5002-NB151-51
B4: S002-NB151-2 VHH-Fc (Fc fusion)
chain: QVQLVESGGGLVQAGDSLRLSCAASGRTFSPSTMAWFRQAPGKERELVARIGWTYGDTYYVDSAKGRFTISMDNVKNTVYLQMNSLKPEDTAVYYCAALFRGGLSYNFSNRGTQVTVSS[human IgG1 Fc with changes cut from this listing]
notes: VHH cloned into vector BI3.4-huIgG1 (hinge and human IgG1 Fc), made in HEK293E; also called 5002-NB151-2
B5: HA22 scFv-hFc (Fc fusion)
chain: EVQLVESGGGLVKPGGSLKLSCAASGFAFSIYDMSWVRQTPEKCLEWVAYISSGGGTTYYPDTVKGRFTISRDNAKNTLYLQMSSLKSEDTAMYYCARHSGYGTHWGVLFAYWGQGTLVTVSAGGGGSGGGGSGGGGSDIQMTQTTSSLSASLGDRVTISCRASQDISNYLNWYQQKPDGTVKLLIYYTSILHSGVPSRFSGSGSGTDYSLTISNLEQEDFATYFCQQGNTLPWTFGCGTKLEIK[human IgG1 Fc with changes cut from this listing]
B6: S002-NB151-92 VHH-Fc (Fc fusion)
chain: QVQLVESGGGLVQSGGSLRLSCAASGFTFSDYTMNWVRQAPGKGLEWVSEISSGGHFKSNADSVKDRFTISRDNAKNTLYLQMNSLKPEDTAVYFCAKCPRPSVYCRDYESTSLYRGQGTQVTVSS[human IgG1 Fc with changes cut from this listing]
notes: VHH cloned into vector BI3.4-huIgG1 (hinge and human IgG1 Fc), made in HEK293E; also called 5002-NB151-92
B7: S002-NB151-66 VHH-Fc (Fc fusion)
chain: QVQLVESGGGLVQAGGSLRLACAASGDTVSIYYMGWFRQAPGKEREFVGALSASGQFTDHADSVKGRFTISRDDAQNTVFLHMNDLKPEDTAVYYCAVQRYGWVYRTDKTMYNYWGQGTQVTVSS[human IgG1 Fc with changes cut from this listing]
notes: VHH cloned into vector BI3.4-huIgG1 (hinge and human IgG1 Fc), made in HEK293E
B8: S002-NB151-23 VHH-Fc (Fc fusion)
chain: QVQLVESGGGLVQAGGSLTVSCTNSGRTLSTSTIAWFRQKPGKDSEFVAAIRWSGGMGWYADSVKGRFTISRDNAENTVSLQMNTLQPEDTAVYFCAVSTVPYYGSIYTRVGDYPYWGQGTQVTVSS[human IgG1 Fc with changes cut from this listing]
notes: VHH cloned into vector BI3.4-huIgG1 (hinge and human IgG1 Fc), made in HEK293E; also called 5002-NB151-23

In the first experiment the target is T3, cynomolgus monkey CD22 on peripheral blood B cells (cynomolgus monkey (Macaca fascicularis)).
T3 construct: whole, on cells; also called cynomolgus monkey B cells
Briefly: FACS, cynomolgus PBMC, CD20+ B cells, antibody 100 nM. On the procedure:
(§1) After the cell suspension was centrifuged, the cells were resuspended in PBS containing 1% BSA, and then the cells were counted. […] After washing the cells three times, APC-labeled secondary antibody anti-human IgG Fc (catalog number: 409306, purchased from Biolegend) was added. After incubation at room temperature in the dark for 30 minutes, the cells were washed 5 times, gently resuspended with PBS containing 1% BSA, and detected and analyzed by FACS (FACS Canto™, purchased from BD Company).
Take B1: the “Proportion of VHH-Fc antibody positive cells to B cells (%)” value (“Proportion … (%)” for short) was determined as 30%.

B2: the “Proportion … (%)” value worked out at 90%.

B3: the “Proportion … (%)” value amounted to 96%.

In the case of B4, the “Proportion … (%)” value was determined as 84%.

As to B5, the “Proportion … (%)” value is 96%.

As for B6, the “Proportion … (%)” value worked out at 75%.

Consider B7, for which the “Proportion … (%)” value worked out at 22%.

As to B8, the “Proportion … (%)” value was determined as 94%.

In a further experiment the target is T3, cynomolgus monkey CD22 on peripheral …. Briefly: FACS, cynomolgus PBMC, CD20+ B cells, antibody 10 nM. On the procedure:
as §1
In the case of B1, the “Proportion … (%)” value came out at 18%.

In the case of B2, the “Proportion … (%)” value was determined as 70%.

As for B3, the “Proportion … (%)” value worked out at 93%.

For the molecule B4, the “Proportion … (%)” value amounted to 86%.

Take B5: the “Proportion … (%)” value was found to be 84%.

Turning to B6, the “Proportion … (%)” value came to 69%.

Turning to B7, the “Proportion … (%)” value worked out at 5%.

On to B8, for which the “Proportion … (%)” value turned out to be 88%.

The next experiment deals with T1, human CD22-ECD-His. Briefly: SPR (Biacore), antibody captured on Protein A, hCD22-ECD-His analyte. On the procedure: Sample buffer and running buffer were HBS-EP+(10 mM HEPES, 150 mM NaCl, 3 mM EDTA, 0.05% surfactant P20) (GE Healthcare; BR-1006-69). The flow-through cell was set to 25° C. The sample block was set to 16° C. Both were pretreated with the running buffer. In each cycle, the antibody to be tested was first captured with a Protein A chip, then a single concentration of CD22 antigen protein was injected. The binding and dissociation process of the antibody and the antigen protein was recorded, and finally Glycine pH 1.5 (GE Healthcare; BR-1003-54) was used to complete chip regeneration. […] The concentration started from 200 nM (see the detailed results for the actual concentration in the test) and was diluted at 1:1, making a total of 5 concentrations. The dissociation phase was monitored for up to 600 s and was triggered by switching from sample solution to running buffer. The surface was regenerated by washing with a 10 mM of glycine solution (pH 1.5) for 30 s at a flow rate of 30 μL/min. Bulk refractive index difference was corrected by subtracting the response obtained from the goat anti-human Fc surface. Blank injection was also subtracted (=double reference). For calculation of apparent KD and other kinetic parameters, Langmuir 1:1 model was used.
In the case of B1, the Kd is 2400 pM, the koff stood at 6.95e-05 s⁻¹ and the kon amounted to 28900 M⁻¹ s⁻¹.

Turning to B2, binding was put at a Kd of 6090 pM, the koff was 0.000514 s⁻¹ and the kon came out at 84300 M⁻¹ s⁻¹.

B3 registered a Kd of 520 pM, a koff of 7.39e-05 s⁻¹ and a kon of 142000 M⁻¹ s⁻¹.

Turning to B4, the Kd was found to be 48900 pM, the koff is 0.000827 s⁻¹ and the kon turned out to be 16900 M⁻¹ s⁻¹.

In the case of B5, binding was put at a Kd of 1370 pM, the koff was found to be 0.000112 s⁻¹ and the kon was found to be 81500 M⁻¹ s⁻¹.

With B6, the Kd came to 25200 pM, the koff was 0.00111 s⁻¹ and the kon came out at 44000 M⁻¹ s⁻¹.

For B7, the Kd was 2250 pM, the koff turned out to be 0.000562 s⁻¹ and the kon stood at 249000 M⁻¹ s⁻¹.

For B8, the Kd came to 2330 pM, the koff is 0.000476 s⁻¹ and the kon turned out to be 204000 M⁻¹ s⁻¹.

The next experiment has as its target T2, human CD22 (full length, on cells). The experiment in a line: FACS, Raji cells. From the text: The required cells were scale-up cultured in a T-75 cell culture flask to the logarithmic growth phase. For the adherent cell CHO-K1, the medium was aspirated, the cells were washed 2 times with PBS buffer, and then digested with trypsin. After the digestion was terminated, the cells were washed 2 times with PBS buffer. For suspension cell Raji, the medium supernatant was directly centrifuged and discarded, and the cell pellet was washed 2 times with PBS. […] The mixture was centrifuged and washed 3 times with PBS buffer, Alexa Flour 488-labeled secondary antibody (purchased from Invitrogen, catalog number: A-11013) was added at 50 μl/well, and incubated on ice for 1 hour. The obtained mixture was centrifuged and washed 5 times with PBS, and FACS (FACS Canto™, purchased from BD Company) was used for detection and result analysis. Data analysis was performed by software (CellQuest) to obtain the mean fluorescence density (MFI) of the cells. And then software (GraphPad Prism8) was used for analysis, data fitting, and EC50 value calculation.
As to B1, the response was half-maximal at 370 pM (EC50) and the “Max MFI” value was 1870.

As to B2, the response was half-maximal at 800 pM (EC50) and the “Max MFI” value was 2330.

Regarding B3, the EC50 is 400 pM and the “Max MFI” value was determined as 2380.

For B4, the EC50 was 320 pM and the “Max MFI” value was determined as 4200.

On to B5, for which the EC50 was determined as 830 pM and the “Max MFI” value is 2520.

On to B6, for which the EC50 is 680 pM and the “Max MFI” value was found to be 3920.

Regarding B7, the EC50 came to 480 pM and the “Max MFI” value was 2310.

Take B8: the midpoint of the response, the EC50, lay at 490 pM and the “Max MFI” value is 2200.
